# This is one part of the list. Repeats are few or missing, and single values can be far off.
# How the values were obtained:
# Assay in all cases: cell count relative to DMSO control; melanoma cells; higher = more viable cells
# Conditions in all cases: library dose: standard library concentration; 72 h
# G361 = test system: G361
# IPC-298 = test system: IPC-298
# IST-MEL1 = test system: IST-MEL1
# LB2518-MEL = test system: LB2518-MEL
# LOXIMVI = test system: LOXIMVI
# MEL-HO = test system: MEL-HO
# MZ2-MEL = test system: MZ2-MEL
# MeWo = test system: MeWo
# RPMI7951 = test system: RPMI7951
# RVH-421 = test system: RVH-421
# SkMel28 = test system: SkMel28
# SkMel2 = test system: SkMel2
# SkMel30 = test system: SkMel30
# SkMel5 = test system: SkMel5
# UACC257 = test system: UACC257
# UACC62 = test system: UACC62
# WM115 = test system: WM115
# WM1716 = test system: WM1716
# WM3526 = test system: WM3526
# 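Note: cells treated in 1,536-well plates, then fixed and DAPI-stained, with nuclei counted from automated high-throughput microscope images.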
SMILES,cell count (G361),cell count (IPC-298),cell count (IST-MEL1),cell count (LB2518-MEL),cell count (LOXIMVI),cell count (MEL-HO),cell count (MZ2-MEL),cell count (MeWo),cell count (RPMI7951),cell count (RVH-421),cell count (SkMel28),cell count (SkMel2),cell count (SkMel30),cell count (SkMel5),cell count (UACC257),cell count (UACC62),cell count (WM115),cell count (WM1716),cell count (WM3526)
"Nc1ncn([C@H]2C[C@H](O)[C@@H](CO)O2)c(=O)n1 [decitabine] + O=C(Nc1ccccc1)c1cc([N+](=O)[O-])ccc1Cl [GW9662] (first compound 0.5 µM, partner dose 10 µM)",66.1%,59.8%,75.3%,96%,59.6%,74%,74.9%,53.2%,62.1%,52.5%,63.6%,97.3%,98.4%,82.3%,84.9%,73%,75.9%,77.4%,94.7%
"Nc1ccn([C@@H]2O[C@H](CO)[C@@H](O)C2(F)F)c(=O)n1 [gemcitabine] + COc1ccc(-c2ccc3c(N4CCOCC4)nc(N4C[C@@H](C)O[C@@H](C)C4)nc3n2)cc1CO [KU0063794] (first compound 0.002 µM, partner dose 0.1 µM)",37.4%,28.5%,38%,58.6%,57.5%,51.8%,60.1%,33.6%,68.4%,67.6%,72%,71.9%,80.8%,71.3%,86.7%,87%,72.7%,56.2%,76.3%
"CO[C@H]1C[C@@H]2CC[C@@H](C)[C@@](O)(O2)C(=O)C(=O)N2CCCC[C@H]2C(=O)O[C@H]([C@H](C)C[C@@H]2CC[C@@H](OCCO)[C@H](OC)C2)CC(=O)[C@H](C)/C=C(\C)[C@@H](O)[C@@H](OC)C(=O)[C@H](C)C[C@H](C)/C=C/C=C/C=C/1C [everolimus] + O=C1NC(=O)/C(=C/c2ccc(-c3ccc(F)cc3O)o2)S1 [AS252424] (first compound 0.1 µM, partner dose 5 µM)",67.5%,76%,92.1%,84.7%,63.6%,65.8%,70.7%,68%,77.1%,115%,49.2%,64.2%,70.4%,70.8%,97.2%,89%,97.6%,76.8%,73.8%
"CC(=O)c1c(C)c2cnc(Nc3ccc(N4CCNCC4)cn3)nc2n(C2CCCC2)c1=O [palbociclib] + Cc1cc([N+](=O)[O-])ccc1NS(=O)(=O)c1cc(Cl)ccc1Cl [FH535] (first compound 0.2 µM, partner dose 5 µM)",35.9%,41.8%,51.3%,54.5%,61.9%,51.7%,51%,44.5%,51%,56%,31.1%,50.2%,60.6%,35.7%,56.7%,60.9%,49.3%,34%,48.9%
"CC(=O)c1c(C)c2cnc(Nc3ccc(N4CCNCC4)cn3)nc2n(C2CCCC2)c1=O [palbociclib] + Oc1cc(-c2nc(-c3ccccc3)[nH]c2-c2ccncc2)ccc1Cl [L779450] (first compound 0.2 µM, partner dose 1 µM)",43%,71.5%,75.7%,69.1%,93%,72.4%,75.9%,37.6%,68.8%,75.6%,25.1%,26.7%,62.7%,47.6%,89.1%,60.4%,41.4%,53%,50.6%
"Nc1ncn([C@H]2C[C@H](O)[C@@H](CO)O2)c(=O)n1 [decitabine] + CCN(CC)CCCCNc1ncc2cc(-c3cc(OC)cc(OC)c3)c(NC(=O)NC(C)(C)C)nc2n1 [PD173074] (first compound 0.5 µM, partner dose 0.5 µM)",79.8%,62%,72.2%,89.3%,83.9%,76.8%,77.3%,58.1%,77.4%,87.7%,83.3%,85.3%,90.7%,73.8%,113%,75.8%,98.8%,71%,88.8%
"Nc1nc(F)nc2c1ncn2[C@@H]1O[C@H](CO)[C@@H](O)[C@@H]1O [fludarabine] + CC(C)CCN1c2nc(Nc3cc(F)c(O)c(F)c3)ncc2N(C)C(=O)C1C [BID1870] (first compound 1 µM, partner dose 1 µM)",87%,72.7%,77.2%,90.1%,75.7%,75.8%,116%,74.3%,99.9%,95.5%,1.58%,1.45%,25.7%,44.1%,30.3%,43.8%,77.8%,68.1%,27.6%
"CO[C@H]1C[C@@H]2CC[C@@H](C)[C@@](O)(O2)C(=O)C(=O)N2CCCC[C@H]2C(=O)O[C@H]([C@H](C)C[C@@H]2CC[C@@H](OCCO)[C@H](OC)C2)CC(=O)[C@H](C)/C=C(\C)[C@@H](O)[C@@H](OC)C(=O)[C@H](C)C[C@H](C)/C=C/C=C/C=C/1C [everolimus] + c1cc(-c2cnn3cc(-c4ccc(OCCN5CCCCC5)cc4)cnc23)ccn1 [Dorsomorphin] (first compound 0.1 µM, partner dose 2 µM)",33.8%,71.6%,85.8%,57%,66.5%,79.1%,60.3%,62.9%,94.8%,100%,50.8%,75.6%,81.5%,68.5%,87.8%,75.8%,53.2%,81.5%,83.1%
"Nc1nc(F)nc2c1ncn2[C@@H]1O[C@H](CO)[C@@H](O)[C@@H]1O [fludarabine] + O=c1cc(-c2cccc3c2Sc2ccccc2S3)oc(N2CCOCC2)c1 [KU55933] (first compound 1 µM, partner dose 5 µM)",65.7%,74.9%,83.6%,72.8%,91.4%,74.8%,96%,101%,69.6%,98.7%,2.34%,0.679%,19.2%,13.2%,39.9%,67.8%,89.5%,95.3%,17.9%
"CO[C@H]1C[C@@H]2CC[C@@H](C)[C@@](O)(O2)C(=O)C(=O)N2CCCC[C@H]2C(=O)O[C@H]([C@H](C)C[C@@H]2CC[C@@H](OCCO)[C@H](OC)C2)CC(=O)[C@H](C)/C=C(\C)[C@@H](O)[C@@H](OC)C(=O)[C@H](C)C[C@H](C)/C=C/C=C/C=C/1C [everolimus] + N#Cc1c(O)c2c(-c3ccc(-c4ccccc4O)cc3)csc2[nH]c1=O [A769662] (first compound 0.1 µM, partner dose 10 µM)",71.5%,80%,57.2%,73.5%,90.2%,66.1%,77.3%,66.9%,109%,73.1%,42.6%,68%,76%,39.7%,94.2%,73.4%,62.3%,70.6%,69.8%
"Nc1ncn([C@H]2C[C@H](O)[C@@H](CO)O2)c(=O)n1 [decitabine] + Oc1nc(-c2ccc(C(F)(F)F)cc2)nc2c1CSCC2 [XAV939] (first compound 0.5 µM, partner dose 10 µM)",67%,55.3%,63.1%,84.9%,81.5%,78.4%,71.6%,66.8%,74.1%,66.6%,60.1%,88.1%,95.7%,56.4%,69.7%,57.8%,81.7%,44.4%,99.3%
"CC(=O)O[C@@]12CO[C@@H]1C[C@H](O)[C@@]1(C)C(=O)[C@H](O)C3=C(C)[C@@H](OC(=O)[C@H](O)[C@@H](NC(=O)OC(C)(C)C)c4ccccc4)C[C@@](O)([C@@H](OC(=O)c4ccccc4)[C@H]21)C3(C)C [Docetaxel] + COc1ccc(-c2ccc3c(N4CCOCC4)nc(N4C[C@@H](C)O[C@@H](C)C4)nc3n2)cc1CO [KU0063794] (first compound 0.0005 µM, partner dose 0.1 µM)",14.2%,34.3%,49.9%,30.1%,73.7%,41.5%,31.4%,26.5%,25.4%,46.4%,14.2%,13.9%,43.5%,28.8%,53.3%,46.9%,34.7%,28.1%,40.7%
"Nc1ccn([C@@H]2O[C@H](CO)[C@@H](O)C2(F)F)c(=O)n1 [gemcitabine] + COc1ccc2c(c1)CCC1C2CCC2(C)C(NCCCCCCN3C(=O)C=CC3=O)CCC12 [U73122] (first compound 0.002 µM, partner dose 2 µM)",35.1%,61.7%,33.5%,74.6%,67.7%,57.9%,82.1%,22.8%,20.9%,70.5%,70.3%,85.1%,80.9%,87.4%,76.7%,57%,69.4%,74.9%,78.2%
"Nc1ccn([C@@H]2O[C@H](CO)[C@@H](O)C2(F)F)c(=O)n1 [gemcitabine] + Cc1cc([N+](=O)[O-])ccc1NS(=O)(=O)c1cc(Cl)ccc1Cl [FH535] (first compound 0.002 µM, partner dose 5 µM)",20.5%,35.2%,41.5%,57.2%,99.3%,46.1%,72.4%,38.2%,75.4%,51.5%,69.8%,85.3%,96%,74.4%,65.9%,95.4%,68.1%,65%,85.6%
"Nc1ccn([C@@H]2O[C@H](CO)[C@@H](O)C2(F)F)c(=O)n1 [gemcitabine] + CCCCCCCCCCCC1=C(O)C(=O)C=C(O)C1=O [Embelin] (first compound 0.002 µM, partner dose 6 µM)",40.1%,30.7%,32.4%,55.3%,87.6%,56.7%,66.9%,56.2%,67.7%,49.2%,93.6%,90.8%,123%,106%,94.4%,87.6%,80.4%,61.3%,114%
"CC(=O)c1c(C)c2cnc(Nc3ccc(N4CCNCC4)cn3)nc2n(C2CCCC2)c1=O [palbociclib] + COc1ccc2c(c1)CCC1C2CCC2(C)C(NCCCCCCN3C(=O)C=CC3=O)CCC12 [U73122] (first compound 0.2 µM, partner dose 2 µM)",110%,109%,97.5%,96.6%,78%,91.4%,101%,76.9%,56.8%,94%,83%,98.2%,94.7%,63.3%,101%,69.8%,95.6%,64.6%,75.5%

# Source: the supplement of paper PMC4604168 (melanoma cell lines)
